Data from PubChem BioAssay AID1671188 (National Center for Advancing Translational Sciences (NCATS), 2021).
In all, about 100,000 compounds went through this assay and about 250 (0.25%) were called active. The shares of active, inactive and inconclusive entries below differ from those in the screen. Calls come from the whole dose curve; as a rule, active = well fitted inhibition curve with a large enough effect; inconclusive = small, poorly fitted or top-dose-only effect; inactive = flat fitted curve, though single readings scatter. Potencies of inconclusive entries are left out as doubtful fits.
% is set by controls: 0 for no effect and ±100 for the full control effect; potency is the fitted concentration of half-maximal effect; tags give direction and shape of the fitted curve.
Note: nearly all actives have a fitted effect of over 60% in size.

What follows are compounds tested against Alanine aminotransferase 2 (Homo sapiens) (UniProt Q8TD30) (assay: Primary qHTS assay for inhibitors of Glutamate pyruvate transaminase 2 (GPT2)). Details: Recombinant GPT2, coupled pyruvate oxidase/HRP Amplex Red fluorescence; activity change, negative = inhibition: at 57.7 µM (top of the series) unless noted; series mostly up to 57.7 µM.
Sequence of UniProt Q8TD30 (Q8TD30 whole entry, looked up): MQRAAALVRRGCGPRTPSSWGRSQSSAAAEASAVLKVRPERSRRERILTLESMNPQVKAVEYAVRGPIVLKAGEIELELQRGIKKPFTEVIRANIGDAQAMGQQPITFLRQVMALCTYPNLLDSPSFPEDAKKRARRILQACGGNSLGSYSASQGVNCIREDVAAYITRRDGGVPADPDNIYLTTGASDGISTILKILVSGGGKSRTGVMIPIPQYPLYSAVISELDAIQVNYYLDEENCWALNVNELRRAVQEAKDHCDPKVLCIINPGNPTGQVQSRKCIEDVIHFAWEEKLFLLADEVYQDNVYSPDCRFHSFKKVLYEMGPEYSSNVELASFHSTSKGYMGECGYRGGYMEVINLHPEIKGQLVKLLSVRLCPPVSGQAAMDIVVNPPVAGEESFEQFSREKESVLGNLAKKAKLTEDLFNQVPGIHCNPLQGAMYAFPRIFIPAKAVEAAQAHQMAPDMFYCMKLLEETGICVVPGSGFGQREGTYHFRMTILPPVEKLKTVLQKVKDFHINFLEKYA
In short: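 Fluorescence read-out: pyruvate from GPT2 turnover coupled to pyruvate oxidase, HRP and Amplex Red (0.2mM ThPP, 0.2U/mL PO and HRP, 50uM Amplex final). Substrates 250uM a-KG, 2mM L-alanine; enzyme 10ng/uL; 30 min RT.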
For COc1cc(OC)c(OC)cc1CN1CCc2nc(N3CCOCC3)[nH]c(=O)c2CC1, the “outcome” value was “inactive”. COc1ccc(NC(=O)N2CC[C@@H](CC(=O)O)[C@@H](CCN3CCOCC3)C2)cc1 was tested, and the Potency was inconclusive [inhibitor, partial curve, poor fit]. With CC(C)c1nc(-c2ccc(OC3CCN(C(=O)Cc4cccc(F)c4)C3)cc2)no1 (configuration not stated) the Potency was inconclusive [inhibitor, full curve, poor fit]. In the case of COc1ccc(Nc2cc3c(cn2)NCCN(Cc2ccccc2)C3)cc1, the Potency is reported as inconclusive [inhibitor, full curve, poor fit]. In the case of CCn1cc(S(=O)(=O)N2CCC3(CCC3N3CCOCC3)CC2)cn1 (configuration not stated), the “activity change, negative = inhibition” value is reported as inactive: -3.63%. In the case of COc1ncccc1-c1nc(N2CCOCC2)cc2c1CN(CC(F)(F)F)C2=O, the “activity change, negative = inhibition” value is reported as inactive: -12.2% [at 88.5 µM]. C=C1C[C@]23C[C@@]1(O)CC[C@H]2[C@@]12C=C[C@H](O)[C@@](C)(C(=O)O1)[C@H]2[C@@H]3C(=O)O was tested, and the Potency was inconclusive [inhibitor, partial curve, poor fit]. In the case of N#Cc1cccc(CN2CCC(c3nc4ccc(F)cc4c(=O)[nH]3)CC2)c1, the Potency is reported as inconclusive [inhibitor, full curve, poor fit]. In the case of Fc1ccc(CN2Cc3[nH]cnc3C[C@H]2c2nc(-c3ccccc3)no2)cc1, the Potency is reported as inconclusive [inhibitor, single point]. CS(=O)(=O)N1CCCNCCNC(=O)CC1c1ccccc1 (configuration not stated) was tested, and the Potency was inconclusive [inhibitor, single point]. For Cc1oc(-c2cccc(C(F)(F)F)c2)nc1CN1CCN(C)C(CCO)C1 (configuration not stated), the “outcome” value was “inactive”. COc1cc(Nc2ncc(F)c(Nc3ccc4c(n3)N(COP(=O)(O)O)C(=O)C(C)(C)O4)n2)cc(OC)c1OC was tested, and the Potency was inconclusive [inhibitor, single point]. With Cc1cc(-c2nccc3c(=O)cc(N(C)C)oc23)ccn1 the Potency was inconclusive [inhibitor, single point]. For CCOC(=O)C1CCCN(C(=O)c2nc3sccn3c2-c2ccccc2)C1 (configuration not stated), the “outcome” value was “inactive”. With Cc1cccc(CN2CCCCCNC(=O)[C@@H]3CCC[C@@H]32)c1 the Potency was inconclusive [inhibitor, single point]. For CC(C)c1noc(CN2CCCC(c3nccn3Cc3ccccc3)C2)n1 (configuration not stated), the Potency was inconclusive [inhibitor, full curve, poor fit]. In the case of Cc1nc2c(c(=O)[nH]1)CCN(CC1(O)CNCCOC1)CC2 (configuration not stated), the “activity change, negative = inhibition” value is reported as inactive: -14.9%. O=C(Nc1cccc(F)c1)C1CCN(c2cc(C(F)(F)F)ncn2)CC1 was tested, and the Potency was inconclusive [inhibitor, single point]. CC(C)(C)c1cccc(CN2CCC3(CCNCC3)C2)c1O was tested, and the “activity change, negative = inhibition” value was inactive: -10.8%. For Cc1ccc(NC(=O)Nc2cccn3nc(C)nc23)cc1, the Potency was inconclusive [inhibitor, single point]. For O=C(C1CCCCC1)N1CCCC2(CC(c3cccc(C(F)(F)F)c3)=NO2)C1 (configuration not stated), the Potency was inconclusive [inhibitor, full curve, poor fit]. With O=C(Nc1ccc2ncnc(N3CCCCC3)c2c1)C1CCCCC1 the Potency was inconclusive [inhibitor, single point]. With CCOc1ccc(CC(=O)N2CCCN(c3cc(-c4ccc(OC)cc4)[nH]n3)CC2)cc1OCC the Potency was inconclusive [inhibitor, partial curve]. For O=C(NCc1ccccc1)C1CCc2nnc(C3CC3)n21 (configuration not stated), the Potency was inconclusive [inhibitor, full curve, poor fit]. For O=C(c1cc2n(n1)CC(c1ccc(Br)cc1)OC2)N1CCOCC1 (configuration not stated), the Potency was inconclusive [inhibitor, single point]. With COc1ccc(NC(=O)[C@@H]2C[C@@H](c3ccc(F)cc3)N([S+](=O)([O-])c3ccccc3)C2)c(C)c1 the Potency was inconclusive [inhibitor, single point]. CCOc1ccccc1C1NC(=O)N(CC(=O)Nc2ccc(F)cc2)C2=C1C(=O)OC2 (configuration not stated) was tested, and the “activity change, negative = inhibition” value was inactive: -8.99%. For CCCc1[nH]nc2c1C(c1ccccc1)C(C#N)=C(N)O2 (configuration not stated), the Potency was inconclusive [inhibitor, single point]. N#Cc1cc([N+](=O)[O-])c2sc(C(N)=O)[n+]([O-])c2c1 was tested, and the Potency was active: 12.6 µM. In the case of O=C(C1CCCC1)N1CC2(CCCN2C2COC2)Cc2ccccc21 (configuration not stated), the “activity change, negative = inhibition” value is reported as inactive: -7.9%. In the case of COCCN1C(=O)c2ccccc2C(C(=O)Nc2nccs2)C12CCCCC2 (configuration not stated), the Potency is reported as inconclusive [inhibitor, single point]. In the case of Oc1ccc(-c2nc(C3CC3)nc3c2CN(Cc2ccccc2C(F)(F)F)CC3)cc1, the Potency is reported as inconclusive [inhibitor, single point]. With CC1(COCC2CC2)COc2ccc(C(=O)Nc3cccnc3)cc2N1 (configuration not stated) the Potency was inconclusive [inhibitor, partial curve, poor fit]. For Cc1noc2c(NCCCn3ccnc3)cc(-c3ccccn3)nc12, the “activity change, negative = inhibition” value was inactive: -0.899% [at 88.5 µM]. For O=C(C1CCc2nnc(C3CCN([S+](=O)([O-])c4ccccc4Cl)CC3)n21)N1CCCCC1 (configuration not stated), the “activity change, negative = inhibition” value was inactive: 2.01%. COc1ccc(Cl)cc1C(=O)NC1CCN(c2cc(-c3cccs3)[nH]n2)C1 (configuration not stated) was tested, and the Potency was inconclusive [inhibitor, single point]. CCCS(=O)(=O)N1CCC2(CCCN(Cc3cccc(F)c3F)C2=O)C1 (configuration not stated) was tested, and the Potency was inconclusive [inhibitor, single point]. For COc1cccc(C(=O)NC2CCCN(c3cc(-c4ccc(F)cc4)[nH]n3)C2)c1 (configuration not stated), the Potency was inconclusive [inhibitor, single point]. COc1ccc(-c2ccc3ncc(Nc4cccc(C(F)(F)F)c4)n3n2)cn1 was tested, and the Potency was inconclusive [inhibitor, partial curve]. With Cc1cc(OCC(=O)O)c(C)c2c1CC[C@@H]([C@H](C)C(=O)NCc1ccccc1)C2 the “activity change, negative = inhibition” value was inactive: 2.02% [at 88.5 µM]. For Cc1ccc(CN2CCCC(c3nc(C(C)C)no3)CCNC(=O)CC2)o1 (configuration not stated), the Potency was inconclusive [inhibitor, single point]. For Cc1cc(C(F)(F)F)nc(CCNC(=O)c2cn(CCCc3ccccc3)nn2)n1, the Potency was inconclusive [inhibitor, single point].
